From PMC12820563
The list shows a part of the results. The list includes weakly bound sequences.

Biological target: T1, MBP-FoxP3dN (UniProt Q99JB6)
T1 sequence: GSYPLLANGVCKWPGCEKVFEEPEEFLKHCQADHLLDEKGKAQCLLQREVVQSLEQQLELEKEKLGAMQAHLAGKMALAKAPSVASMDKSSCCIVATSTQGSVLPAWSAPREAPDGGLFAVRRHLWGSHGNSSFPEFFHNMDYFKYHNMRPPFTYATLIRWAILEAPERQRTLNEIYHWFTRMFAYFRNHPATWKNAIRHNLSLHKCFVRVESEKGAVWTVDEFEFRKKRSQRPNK
Assay: PD-seq (MBP pull-down with sequencing)
Conditions: 20 mM Tris-HCl pH 7.5, 100 mM NaCl, 1.5 mM MgCl2, 0.4 uM protein, 0.1 uM dsDNA library, 30 min, room temperature, amylose pull-down; high values mean tight binding; double strand, one strand shown

Sequence	binding signal (RPM ratio (pull-down/input))
GATGATTGTTCTCCCAGCTGATGAATTCGTTGTATCGAGTAAACAAATTTTCCTAATCTTTCTGTTCAAGCGCCATCTAC	4.52
GATGATTGTTCTCCCAGCTGATGAATTACAGTAATCGAGTAAACAAATTTTCCTAATCTTTCTGTTCAAGCGCCATCTAC	0.589
GATGATTGTTCTCCCAGCTGATGAATTTCGCATATCGAGTAAACAAATTTTCCTAATCTTTCTGTTCAAGCGCCATCTAC	3.23
GATGATTGTTCTCCCAGCTGATGAATTCGGAGCCTCGAGTAAACAAATTTTCCTAATCTTTCTGTTCAAGCGCCATCTAC	0.408
GATGATTGTTCTCCCAGCTGATGAATTACTTCGGTCGAGTAAACAAATTTTCCTAATCTTTCTGTTCAAGCGCCATCTAC	0.198
GATGATTGTTCTCCCAGCTGATGAATTACGGTTCTCGAGTAAACAAATTTTCCTAATCTTTCTGTTCAAGCGCCATCTAC	0.967
GATGATTGTTCTCCCAGCTGATGAATTAGTGTTGTCGAGTAAACAAATTTTCCTAATCTTTCTGTTCAAGCGCCATCTAC	3.93
GATGATTGTTCTCCCAGCTGATGAATTTGCCTAATCGAGTAAACAAATTTTCCTAATCTTTCTGTTCAAGCGCCATCTAC	0.653
GATGATTGTTCTCCCAGCTGATGAATTCATGGGCTCGAGTAAACAAATTTTCCTAATCTTTCTGTTCAAGCGCCATCTAC	0.363
GATGATTGTTCTCCCAGCTGATGAATTAGGGCAATCGAGTAAACAAATTTTCCTAATCTTTCTGTTCAAGCGCCATCTAC	1.66
GATGATTGTTCTCCCAGCTGATGAATTGGTAATGTCGAGTAAACAAATTTTCCTAATCTTTCTGTTCAAGCGCCATCTAC	0.755
GATGATTGTTCTCCCAGCTGATGAATTAGGATTCTCGAGTAAACAAATTTTCCTAATCTTTCTGTTCAAGCGCCATCTAC	0.53
GATGATTGTTCTCCCAGCTGATGAATTTGACCACTCGAGTAAACAAATTTTCCTAATCTTTCTGTTCAAGCGCCATCTAC	0.461
GATGATTGTTCTCCCAGCTGATGAATTAGCTTATTCGAGTAAACAAATTTTCCTAATCTTTCTGTTCAAGCGCCATCTAC	3.09
GATGATTGTTCTCCCAGCTGATGAATTAGATAAGTCGAGTAAACAAATTTTCCTAATCTTTCTGTTCAAGCGCCATCTAC	0.283
GATGATTGTTCTCCCAGCTGATGAATTGGAGTGGTCGAGTAAACAAATTTTCCTAATCTTTCTGTTCAAGCGCCATCTAC	0.455
GATGATTGTTCTCCCAGCTGATGAATTAGAAATGTCGAGTAAACAAATTTTCCTAATCTTTCTGTTCAAGCGCCATCTAC	0.302
GATGATTGTTCTCCCAGCTGATGAATTAGGAATGTCGAGTAAACAAATTTTCCTAATCTTTCTGTTCAAGCGCCATCTAC	0.57
GATGATTGTTCTCCCAGCTGATGAATTGTGGTTCTCGAGTAAACAAATTTTCCTAATCTTTCTGTTCAAGCGCCATCTAC	1.7
GATGATTGTTCTCCCAGCTGATGAATTGGTGAGTTCGAGTAAACAAATTTTCCTAATCTTTCTGTTCAAGCGCCATCTAC	1.06

Sequence	binding signal (RPM ratio (pull-down/input))
GATGATTGTTCTCCCAGCTGATGAATTGCCGCGATCGAGTAAACAAATTTTCCTAATCTTTCTGTTCAAGCGCCATCTAC	0.765
GATGATTGTTCTCCCAGCTGATGAATTGTATTTTTCGAGTAAACAAATTTTCCTAATCTTTCTGTTCAAGCGCCATCTAC	3.78
GATGATTGTTCTCCCAGCTGATGAATTGAATTGCTCGAGTAAACAAATTTTCCTAATCTTTCTGTTCAAGCGCCATCTAC	0.968
GATGATTGTTCTCCCAGCTGATGAATTTCTCCCTTCGAGTAAACAAATTTTCCTAATCTTTCTGTTCAAGCGCCATCTAC	0.249
GATGATTGTTCTCCCAGCTGATGAATTGTCTATCTCGAGTAAACAAATTTTCCTAATCTTTCTGTTCAAGCGCCATCTAC	0.982
GATGATTGTTCTCCCAGCTGATGAATTGTACTTCTCGAGTAAACAAATTTTCCTAATCTTTCTGTTCAAGCGCCATCTAC	0.521
GATGATTGTTCTCCCAGCTGATGAATTCGAGCCCTCGAGTAAACAAATTTTCCTAATCTTTCTGTTCAAGCGCCATCTAC	0.346
GATGATTGTTCTCCCAGCTGATGAATTCAACGCATCGAGTAAACAAATTTTCCTAATCTTTCTGTTCAAGCGCCATCTAC	0.942
GATGATTGTTCTCCCAGCTGATGAATTTCCGATCTCGAGTAAACAAATTTTCCTAATCTTTCTGTTCAAGCGCCATCTAC	0.257
GATGATTGTTCTCCCAGCTGATGAATTCTCGACTTCGAGTAAACAAATTTTCCTAATCTTTCTGTTCAAGCGCCATCTAC	0.42
GATGATTGTTCTCCCAGCTGATGAATTCCATTCTTCGAGTAAACAAATTTTCCTAATCTTTCTGTTCAAGCGCCATCTAC	0.367
GATGATTGTTCTCCCAGCTGATGAATTCATCAAATCGAGTAAACAAATTTTCCTAATCTTTCTGTTCAAGCGCCATCTAC	0.256
GATGATTGTTCTCCCAGCTGATGAATTAGCACGTTCGAGTAAACAAATTTTCCTAATCTTTCTGTTCAAGCGCCATCTAC	0.484
GATGATTGTTCTCCCAGCTGATGAATTGACGTCGTCGAGTAAACAAATTTTCCTAATCTTTCTGTTCAAGCGCCATCTAC	0.561
GATGATTGTTCTCCCAGCTGATGAATTTCGTCGATCGAGTAAACAAATTTTCCTAATCTTTCTGTTCAAGCGCCATCTAC	0.362
GATGATTGTTCTCCCAGCTGATGAATTCCACCTGTCGAGTAAACAAATTTTCCTAATCTTTCTGTTCAAGCGCCATCTAC	0.3
GATGATTGTTCTCCCAGCTGATGAATTTAGAAAGTCGAGTAAACAAATTTTCCTAATCTTTCTGTTCAAGCGCCATCTAC	0.256
GATGATTGTTCTCCCAGCTGATGAATTAGCTGTTTCGAGTAAACAAATTTTCCTAATCTTTCTGTTCAAGCGCCATCTAC	3.19
GATGATTGTTCTCCCAGCTGATGAATTCGCCCATTCGAGTAAACAAATTTTCCTAATCTTTCTGTTCAAGCGCCATCTAC	0.4
GATGATTGTTCTCCCAGCTGATGAATTGGGGCGTTCGAGTAAACAAATTTTCCTAATCTTTCTGTTCAAGCGCCATCTAC	1.01
